From PubChem BioAssay AID504332 (National Center for Advancing Translational Sciences (NCATS), 2011)
The whole screen tested about 350,000 compounds, of which about 31,000 (8.9%) were called active. Inconclusive results, whose numbers are uncertain, are shown with a selection of clear calls. The call rests on the fitted dose curve; in most records, active means well fitted inhibition curve with a large enough effect; inconclusive means small, poorly fitted or top-dose-only effect; inactive means no such curve, though single readings can be large or run the other way. Where the call is inconclusive, the potency comes from a doubtful curve fit.

Target: Histone-lysine N-methyltransferase EHMT2 (Homo sapiens) (UniProt Q96KQ7)
Assay: qHTS Assay for Inhibitors of Histone Lysine Methyltransferase G9a; further: nearly all actives have a fitted effect of over 75% in size
Details: G9a H3K9 monomethylation, AlphaScreen, 2 h; activity, negative = inhibition: at 59 µM (top of the series) unless noted
In short: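 Chemiluminescent proximity detection of H3K9 monomethylation, read after 10 min bead incubation in the dark. Reaction: 20 nM G9a, 500 nM biotin-H3K9 peptide, 20 uM SAM cofactor, 2 h, room temperature, following 15 min enzyme-compound preincubation.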
On the % scale 0 is the no-effect control and ±100 the full control effect; potency means the concentration at half of the fitted maximal effect; tags describe the fitted curve by direction and shape.

Sequence of UniProt Q96KQ7 (Q96KQ7 whole entry, looked up): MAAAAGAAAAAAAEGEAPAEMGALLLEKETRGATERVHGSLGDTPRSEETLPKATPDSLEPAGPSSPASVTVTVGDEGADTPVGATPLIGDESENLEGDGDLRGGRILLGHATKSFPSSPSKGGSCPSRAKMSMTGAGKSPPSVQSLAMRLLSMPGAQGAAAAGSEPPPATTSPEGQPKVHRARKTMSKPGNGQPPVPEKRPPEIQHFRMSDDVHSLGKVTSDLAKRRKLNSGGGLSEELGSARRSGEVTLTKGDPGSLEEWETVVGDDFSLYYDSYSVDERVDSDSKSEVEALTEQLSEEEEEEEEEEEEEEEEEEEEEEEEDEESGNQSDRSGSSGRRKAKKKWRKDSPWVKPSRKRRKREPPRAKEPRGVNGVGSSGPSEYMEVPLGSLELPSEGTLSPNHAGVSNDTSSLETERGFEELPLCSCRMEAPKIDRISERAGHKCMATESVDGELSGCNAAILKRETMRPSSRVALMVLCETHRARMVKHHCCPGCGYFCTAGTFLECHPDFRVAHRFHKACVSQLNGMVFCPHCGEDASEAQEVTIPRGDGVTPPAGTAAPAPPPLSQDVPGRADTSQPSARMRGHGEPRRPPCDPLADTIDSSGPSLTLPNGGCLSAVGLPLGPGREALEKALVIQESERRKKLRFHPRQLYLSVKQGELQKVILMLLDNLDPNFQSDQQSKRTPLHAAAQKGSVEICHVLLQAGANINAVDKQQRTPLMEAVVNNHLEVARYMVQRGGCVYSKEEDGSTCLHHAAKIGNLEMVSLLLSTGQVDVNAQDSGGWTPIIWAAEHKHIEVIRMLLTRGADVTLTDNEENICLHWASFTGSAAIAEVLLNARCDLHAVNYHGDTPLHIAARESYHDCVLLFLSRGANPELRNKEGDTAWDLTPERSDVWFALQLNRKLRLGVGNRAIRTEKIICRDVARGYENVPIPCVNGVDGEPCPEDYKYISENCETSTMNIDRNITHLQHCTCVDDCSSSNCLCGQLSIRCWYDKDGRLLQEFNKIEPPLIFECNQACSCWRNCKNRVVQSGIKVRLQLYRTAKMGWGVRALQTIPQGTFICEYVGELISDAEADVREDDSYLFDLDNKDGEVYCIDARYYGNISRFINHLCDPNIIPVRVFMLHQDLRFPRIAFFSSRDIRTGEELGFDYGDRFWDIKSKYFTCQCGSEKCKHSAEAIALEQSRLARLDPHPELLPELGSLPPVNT

Compound	Potency	activity, negative = inhibition
O=C(c1ccco1)N1CCCN(C(=O)c2ccco2)CC1	inactive	
CCN(CC)C(=O)C1CCCN(Cc2ccc(OC)c(C)c2C)C1 (stereo not given)	inconclusive: 3.55 µM [inhibitor, partial curve, poor fit]	
CCOc1cccc(C2C(C(=O)c3ccco3)=C(O)C(=O)N2c2nnc(C)s2)c1 (stereo not given)	inconclusive: 7.94 µM [inhibitor, partial curve, poor fit]	
CN(Cc1nccn1C)C(=O)CC1C(=O)NCCN1Cc1cccc(Oc2ccccc2)c1 (stereo not given)	inconclusive: 50.1 µM [inhibitor, partial curve]	
CN(C)CCCn1c(SCC(=O)N2CC(=O)Nc3ccccc32)nc2ccccc2c1=O	inconclusive: 20 µM [inhibitor, partial curve, poor fit]	
CCc1ccc(OCCOCC(O)CN2CCN(Cc3ccc(Cl)cc3)CC2)cc1 (stereo not given)	inconclusive: 35.5 µM [inhibitor, single point]	
N#Cc1nc(-c2ccco2)oc1N1CCN(C(c2ccccc2)c2ccccc2)CC1		inconclusive: -72.5% [inhibitor]
c1ccc(-n2nnnc2SCc2cccc3nsnc23)cc1	inactive	
Cc1ccc(C)c(OCCCC(=O)O)c1	inactive	
CCOC(=O)C1CCN(Cc2cccc(OCc3ccccc3)c2)CC1	inconclusive: 39.8 µM [inhibitor, single point]	
CCc1cccc2c(C(=O)COC(=O)c3nccnc3N)c[nH]c12	inconclusive: 1.78 µM [inhibitor, full curve, poor fit]	
CCOC(=O)C1CCC(CN(Cc2ccccc2)S(=O)(=O)c2ccc([N+](=O)[O-])cc2)CC1 (stereo not given)	inconclusive: 15.8 µM [inhibitor, single point]	
COc1cccc(-c2[nH]nc3c2C(c2ccsc2)C(C#N)=C(N)O3)c1 (stereo not given)		inactive: -2.36% [at 12.7 µM]
Cn1ccnc1C(=O)c1ccc(NN)c([N+](=O)[O-])c1	active: 22.4 µM	
CN(C)S(=O)(=O)c1ccc(C(=O)OCC2COC(C)(C)O2)cc1 (stereo not given)	inactive	
COC(=O)c1cc2c(cc1Cl)N1CCCCCC1=NS2(=O)=O	inactive	
NC(=O)C1Cc2ccccc2CN1S(=O)(=O)c1cccs1 (stereo not given)	inactive	
Cc1nc2cc(C(=O)O)ccc2n1-c1ccccc1	inconclusive: 89.1 µM [inhibitor, single point]	
c1ccc2c(c1)CCCN2c1nc(N2CCOCC2)nc(N2CCOCC2)n1	inconclusive: 31.6 µM [inhibitor, partial curve, poor fit]	
O=[N+]([O-])c1ccc(F)cc1OCc1cccc(S(=O)(=O)N2CCOCC2)c1	inconclusive: 10 µM [inhibitor, partial curve, poor fit]	
CCOC(=O)c1cc2c(=O)n3ccccc3nc2n(CC2CCCO2)c1=NC(=O)c1ccccc1C (stereo not given)	inactive	
CC(C)Cn1c(-c2nn(C)cc2Cl)n[nH]c1=S	active: 10 µM	
O=C(CSc1ccccn1)Nc1ccc2ccccc2c1	inactive	

Compound	Potency	activity, negative = inhibition
CCC(=O)N1CCc2cc(Br)cc(S(=O)(=O)NCCN3CCCCC3CC)c21 (stereo not given)	inconclusive: 39.8 µM [inhibitor, partial curve, poor fit]	
Cc1ccc(CN2CCN(/N=C/c3cc([N+](=O)[O-])ccc3Cl)CC2)cc1	inconclusive: 3.16 µM [inhibitor, single point]	
CC1CN(C2CCN(S(=O)(=O)c3ccc4ccccc4c3)CC2)CC(C)O1 (stereo not given)	active: 6.31 µM	
CC(=O)c1c(C)[nH]c(C(=O)CSc2ccc(F)cc2)c1C	inactive	
COc1ccc(NC(=O)/C=C/c2ccc(C)o2)cc1S(=O)(=O)N1CCOCC1	active: 6.31 µM	
Cc1ccc(C)c(Cn2c(O)c(N=NC(=S)Nc3ccccc3F)c3ccccc32)c1	inconclusive: 20 µM [inhibitor, partial curve, poor fit]	
Cc1cccc(C(=O)NCCc2nnc(SCC(=O)Nc3nc(C)cs3)n2C)c1	inactive	
Cn1c(=O)c2ncn(CC(=O)NC3CCCCCC3)c2n(C)c1=O	active: 14.1 µM	
CC(C)(CC(=O)O)CC(=O)Nc1ccc(Oc2ccc(C(C)(C)C)cc2)nc1	inconclusive: 70.8 µM [inhibitor, partial curve, poor fit]	
COc1ccc(OC)c(NC(=O)c2cccc3c2C(=O)N(C2CCCCC2)C3)c1	inconclusive: 20 µM [inhibitor, partial curve, poor fit]	
COC(=O)c1ccc(NCC(=O)Nc2cc(C)cc(C)c2)cc1	inconclusive: 31.6 µM [inhibitor, partial curve, poor fit]	
Cc1cc(/C=C2/NC(=O)NC2=O)c(C)n1-c1cccnc1	inconclusive: 8.91 µM [inhibitor, single point]	
CC(C)(C)OC(=O)NNC(=O)Nc1ccccc1C(F)(F)F	inactive	
Cc1oc(-c2ccccc2F)nc1CS(=O)CC(=O)NC(C)C (stereo not given)	inconclusive: 11.2 µM [inhibitor, partial curve]	
COc1cccc(C2c3[nH]c4ccccc4c3CCN2CCCn2cccn2)c1 (stereo not given)	inconclusive: 50.1 µM [inhibitor, partial curve]	
CCN(C(=O)COC(=O)C1CCN(S(=O)(=O)c2ccc(C)c(C)c2)CC1)C1CCS(=O)(=O)C1 (stereo not given)		inactive: 7.98% [at 2.33 µM]
O=[N+]([O-])c1ccc(S(=O)(=O)Nc2nnc(C(F)(F)F)s2)cc1	active: 44.7 µM	
COc1cc(C2C(C(C)=O)=C(O)C(=O)N2Cc2ccccc2)ccc1O (stereo not given)	active: 44.7 µM	
Cc1ccc(N2C(=O)c3ccc(C(=O)N4CCN(c5ccc(C)c(C)c5)CC4)cc3C2=O)cc1	inconclusive: 56.2 µM [inhibitor, partial curve, poor fit]	
Cc1cccc(C2c3[nH]c4ccccc4c3CCN2C(=O)Cc2nc(-c3ccccc3)n[nH]2)n1 (stereo not given)	inconclusive: 44.7 µM [inhibitor, partial curve]	
CCOC(=O)c1cc(=O)n2nc(-c3ccccc3F)nc2s1		inconclusive: -59.6% [inhibitor]
Cc1cccc(NC(=O)Cn2c(O)c(N=NC(=O)c3ccccc3O)c3ccccc32)c1	inactive	
